Results reported in PubChem BioAssay AID624417 (National Center for Advancing Translational Sciences (NCATS), 2012).
In all, about 410,000 compounds went through this assay and about 6,400 (1.6%) were called active. Inconclusive results, whose numbers are uncertain, are shown with a selection of clear calls. The call rests on the fitted dose curve; in most records, active means well fitted inhibition curve with a large enough effect; inconclusive means small, poorly fitted or top-dose-only effect; inactive means no such curve, though single readings can be large or run the other way. Potencies of inconclusive entries are doubtful fits and often do not repeat.

target: Glucagon-like peptide 1 receptor (Homo sapiens) (UniProt P43220); assay: qHTS of GLP-1 Receptor Inverse Agonists (Inhibition Mode); details: HEK293 GLP-1R CRE-luciferase, luminescence, 24 h, GLP-1R form is constitutively active; activity change, negative = inhibition: at 38.3 µM (top of the series) unless noted; further: nearly all actives have a fitted effect of over 55% in size
UniProt P43220, sequence (P43220 whole entry, looked up): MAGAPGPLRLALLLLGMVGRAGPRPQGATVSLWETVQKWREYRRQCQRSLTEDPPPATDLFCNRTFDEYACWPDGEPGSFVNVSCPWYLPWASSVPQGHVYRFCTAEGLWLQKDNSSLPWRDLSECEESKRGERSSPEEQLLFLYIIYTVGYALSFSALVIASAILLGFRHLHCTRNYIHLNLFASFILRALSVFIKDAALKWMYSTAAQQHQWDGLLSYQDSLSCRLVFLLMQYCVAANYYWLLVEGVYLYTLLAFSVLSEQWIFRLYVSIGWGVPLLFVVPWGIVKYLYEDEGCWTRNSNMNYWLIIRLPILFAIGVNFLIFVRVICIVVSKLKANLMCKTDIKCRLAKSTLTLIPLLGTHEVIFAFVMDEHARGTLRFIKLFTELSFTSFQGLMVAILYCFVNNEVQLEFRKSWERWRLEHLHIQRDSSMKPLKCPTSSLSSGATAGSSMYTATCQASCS
Method in brief: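 Stable HEK293 clone (constitutively active GLP-1R + cAMP-response luciferase); 200 cells/uL plated, 12 h pre-culture, compound 24 hr, 37 deg C/5% CO2; detection reagent 12 min RT; luminescence.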
On the % scale 0 is the no-effect control and ±100 the full control effect; potency means the concentration at half of the fitted maximal effect; tags describe the fitted curve by direction and shape.

Potency, active:
Cc1ncoc1C(=O)NC1CCCc2c1cnn2-c1ccc(C(C)(C)C)cc1 (stereo not given) 5.01 µM

Potency, inconclusive:
Cc1cccc(C)c1NC(=O)c1cccc(C(=O)Nc2c(C)cccc2C)n1 28.2 µM [inhibitor, single point], Cc1ccc(CN(C(=O)c2sc3ccccc3c2Cl)C2CCS(=O)(=O)C2)cc1 (stereo not given) 11.2 µM [inhibitor, partial curve, poor fit], COc1ccc(OCC(=O)Nc2ccccc2-c2ccccc2)cc1 10 µM [inhibitor, partial curve, poor fit], CN(C)CCn1cnc2c(c1=N)C(c1ccccc1)c1ccc3ccccc3c1O2 (stereo not given) 7.08 µM [inhibitor, partial curve], CCn1c2ccccc2c2cc(CN3CCN(Cc4ccc(Cl)cc4)CC3)ccc21 28.2 µM [inhibitor, single point], CC1CCN(c2nc(-c3cccnc3)nc3scc(-c4ccccc4)c23)CC1 22.4 µM [inhibitor, single point], CC1=NN(C2=NS(=O)(=O)c3ccccc32)C(C)(O)C1 (stereo not given) 3.16 µM [inhibitor, partial curve, poor fit], COc1ccc(CCNc2nc(-c3ccco3)cc(C(F)(F)F)n2)cc1OC 12.6 µM [inhibitor, single point], CC1CC2(C)CC(C)C1(COC(=O)Nc1ccccc1)CO2 (stereo not given) 2.82 µM [inhibitor, single point], O=C(Nc1ncc(Cc2cccc(Cl)c2)s1)c1cccs1 12.6 µM [inhibitor, partial curve, poor fit], CN(C)CCCN(C(=O)c1ccco1)c1nc2c(F)cc(F)cc2s1 28.2 µM [inhibitor, single point], CC(C)c1ccc(CN2CCC(n3nccc3NC(=O)C3CCCC3)CC2)cc1 12.6 µM [inhibitor, partial curve, poor fit], CC(C)(C)NC(=O)C(c1c[nH]c2ccccc12)N(C(=O)Cn1nnc(-c2ccc(F)cc2)n1)c1cccc(O)c1 (stereo not given) 5.01 µM [inhibitor, full curve, poor fit], CCc1cccc(C)c1NC(=O)CCCn1c(C)c2cnn(-c3ccccc3)c(=O)c2c1C 20 µM [inhibitor, single point], COc1ccccc1-n1c(C)cc(/C=C2/C(=N)N3C(=NC2=O)SN=C3S(C)(=O)=O)c1C 8.91 µM [inhibitor, partial curve, poor fit], CCCN(C(=O)Cc1nc(-c2ccc(OC)cc2)no1)c1ccccc1C 11.2 µM [inhibitor, partial curve, poor fit], O=C(COc1ccccc1)NC1CCCN(Cc2ccccc2F)C1 (stereo not given) 12.6 µM [inhibitor, single point], COCC(C)NC(=O)NC1(C(F)(F)F)Oc2ccc(Cl)cc2O1 (stereo not given) 28.2 µM [inhibitor, single point], O=C(NN1C(=O)NC2(CCCCC2)C1=O)c1ccc(-c2ccccc2Cl)o1 6.31 µM [inhibitor, partial curve], Cc1c(C(=O)N2CCCc3ccccc32)oc2ccc(S(=O)(=O)N3CCOCC3)cc12 28.2 µM [inhibitor, single point], Cc1ccc(C)c(N(C)C(=O)c2cc3c(s2)-c2ccccc2OC3)c1 11.2 µM [inhibitor, partial curve, poor fit], COc1ccc(N2CCN(C(=O)CN3CCN(C(c4ccccc4)c4ccccc4)CC3)CC2)cc1 7.94 µM [inhibitor, partial curve, poor fit], Cc1cc(C)c(OCC(=O)N(Cc2ccc(N(C)C)cc2)CC2CCCO2)c(C)c1 (stereo not given) 11.2 µM [inhibitor, single point], Cc1cc(C)nc(N/N=C/c2ccccc2OCc2ccc(Cl)cc2)n1 28.2 µM [inhibitor, single point], O=C(Cn1cc2c(n1)CCCC2)Nc1cc(-c2cccc(Cl)c2)no1 14.1 µM [inhibitor, single point], CCN1C(=O)[C@H]2[C@@H](c3ccc(-c4ccc(OC)cc4)cc3)N[C@@](CC(C)C)(C(=O)OC)[C@H]2C1=O 11.2 µM [inhibitor, partial curve, poor fit], O=C(NCc1cccc(Cl)c1)c1cccc2c(-c3cccnc3)coc12 11.2 µM [inhibitor, partial curve], CC1Cc2ccccc2N1C(=O)COc1ccc2c(c1)OCO2 (stereo not given) 10 µM [inhibitor, single point], COc1ccc(-c2noc(CCC(=O)N3CCN(c4ccccc4Cl)CC3)n2)cc1 28.2 µM [inhibitor, single point], Cc1cc(C(=O)OCC(=O)NC(C)c2ccccc2)c(C)o1 (stereo not given) 10 µM [inhibitor, single point], CCOC(=O)C(CC)Sc1ncnc2c1c(-c1ccccc1)cn2-c1ccc(OC)cc1 (stereo not given) 28.2 µM [inhibitor, single point]

Activity change, negative = inhibition, inactive:
CCN(CC)c1ccc(NS(=O)(=O)c2cc(-c3onc(C)c3C)ccc2OC)c(C)c1 -18.5%, COc1cc(C(=O)Oc2cccc(/C=N/NC(=O)c3cccnc3)c2)cc(OC)c1OC -8.91%, C=CCn1cccc(C(=O)Nc2ccc(C)c(C)c2)c1=O -20.5%, COCCn1c(=O)[nH]c2cc(C(=O)NCc3ccccc3)ccc2c1=O 3.03%, CCS(=O)(=O)N1CC(=O)N(c2ccc(Cl)cc2C)C(C)(C(=O)NC2CCCCC2)C1 (stereo not given) 4%, Cc1cc(-c2ccccc2)nc(=O)[nH]1 5.59%, CC(C)(C)n1nnnc1C(c1cccs1)N1CCCC2(CCCCC2)C1 (stereo not given) 0%, Cc1c(CNC2CCC(C)CC2)c(C(=O)O)c(C)n1Cc1ccc(Cl)cc1 (stereo not given) -8.47%
